In the supplement of paper PMC12217912:
The list shows a part of the results. Sequences were assembled here from the parent chain. Inactive controls read about 0.05.

B1: TEV protease; numbered along this chain (parent)
chain: MGESLFKGPRDYNPISSSICHLTNESDGHTTSLYGIGFGPFIITNKHLFRRNNGTLVVQSLHGVFKVKDTTTLQQHLVDGRDMIIIRMPKDFPPFPQKLKFREPQREERICLVTTNFQTKSMSSMVSDTSCTFPSGDGIFWKHWIQTKDGQCGSPLVSTRDGFIVGIHSASNFTNTNNYFTSVPKNFMELLTNQEAQQWVSGWRLNADSVLWGGHKVFMVKPEEPFQPVKEATQL

Variants of: B1
Test: raw area under fraction-flipped curve 0-4 h after induction (AUC4h, not background-subtracted), DNA-recorder readout of cleavage of the substrate (dimensionless); higher = more cleavage of the substrate by the protease variant
Settings: temperature: 34 °C; time window: 0-4 h after rhamnose induction
Experimental: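 In vivo DNA recorder in E. coli TOP10(DE3) ΔrhaA at 34 °C. Each TEVp single-site mutant (parent TEVp 0) is paired with a single-site variant of the 7-mer TEVs (canonical ENLYFQ|S). The substrate sits between flexible linkers in a Bxb1-sfGFP-TEVs-SsrA fusion, so cleavage stabilises Bxb1 and speeds flipping of a recombination array, read by NGS. The value is the raw area under the fraction-flipped curve over 0-4 h after rhamnose induction (AUC4h), with ≥20 reads per time point. It is not background-subtracted; inactive controls average about 0.047.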
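Also: Bxb1 expression induced with 0.2% (w/v) L-rhamnose at OD600 near 0.5, cultures sampled hourly, flipped fraction per protease–substrate barcode pair counted by paired-end Illumina sequencing.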

Row | Variant | area with substrate FNLYFQS | area with substrate HNLYFQS | area with substrate KNLYFQS | area with substrate LNLYFQS | area with substrate MNLYFQS | area with substrate SNLYFQS | area with substrate VNLYFQS | area with substrate PNLYFQS | area with substrate TNLYFQS | area with substrate WNLYFQS
1 | MGESLFKGPRDYNPISSSICHLTNESDGHTTSLYGIGFGPFIITNKHLFRRNNGTLVVQSLHGVFKVKDTTTLQQHLVDGRDMIIIRMPKDFPPFPQKLKFREPQREERICLVTTNFQTKSMSSMVSDTSCTFPSGDGIFWKHWIQTKDGQCGSPLVSTRDGFIVGIHSKSNFTNTNNYFTSVPKNFMELLTNQEAQQWVSGWRLNADSVLWGGHKVFMVKPEEPFQPVKEATQL [A170K] | 0.0577 | 0.0666 | 0.0658 | 0.0584 | 0.0606 | 0.0557 | 0.0597 | – | – | –
2 | MGESLFKGPRDYNPISSSICHLTNESDGHTTSLYGIGFGPFIITNKHLFRRNNGTLVVQSLHGVFKVKDTTTLQQHLVDGRDMIIIRMPKDFPPFPQKLKFREPQREERICLVTTNFQTKSMSSMVSDTSCTFPSGDGIFWKHWIQTKDGQCGSPLVSTRDGFIVGIHSESNFTNTNNYFTSVPKNFMELLTNQEAQQWVSGWRLNADSVLWGGHKVFMVKPEEPFQPVKEATQL [A170E] | 0.0933 | – | – | – | – | – | – | 0.0658 | 0.0762 | 0.0575
3 | MGESLFKGPRDYNPISSSICHLTNESDGHTTSLYGIGFGPFIITNKHLFRRNNGTLVVQSLHGVFKVKDTTTLQQHLVDGRDMIIIRMPKDFPPFPQKLKFREPQREERICLVTTNFQTKSMSSMVSDTSCTFPSGDGIFWKHWIQTKDGQCGSPLVSTRDGFIVGIHSASNFTATNNYFTSVPKNFMELLTNQEAQQWVSGWRLNADSVLWGGHKVFMVKPEEPFQPVKEATQL [N175A] | 0.077 | 0.061 | 0.0693 | – | – | 0.072 | 0.0634 | 0.0455 | 0.0628 | 0.0571
4 | MGESLFKGPRDYNPISSSICHLTNESDGHTTSLYGIGFGPFIITNKHLFRRNNGTLVVQSLHGVFKVKDTTTLQQHLVDGRDMIIIRMPKDFPPFPQKLKFREPQREERICLVTTNFQTKSMSSMVSDTSCTFPSGDGIFWKHWIQTKDGQCGSPLVSTRDGYIVGIHSASNFTNTNNYFTSVPKNFMELLTNQEAQQWVSGWRLNADSVLWGGHKVFMVKPEEPFQPVKEATQL [F163Y] | 0.0586 | – | 0.074 | – | 0.0667 | 0.0683 | 0.0686 | – | – | 0.0683
5 | MGESLFKGPRDYNPISSSICHLTNESDGHTTSLYGIGFGPFIITNKHLFRRNNGTLVVQSLHGVFKVKDTTTLQQHLVDGRDMIIIRMPKDFPPFPQKLKFREPQREERICLVTTNFQTKSMSSMVSDTSCTFPSGDGIFWKHWIQTKDGQCGSPLVSTRDGPIVGIHSASNFTNTNNYFTSVPKNFMELLTNQEAQQWVSGWRLNADSVLWGGHKVFMVKPEEPFQPVKEATQL [F163P] | 0.0731 | – | – | – | 0.0585 | – | – | – | – | 0.059
6 | MGESLFKGPRDYNPISSSICHLTNESDGHTTSLYGIGFGPFIITNKHLFRRNNGTLVVQSLHGVFKVKDTTTLQQHLVDGRDMIIIRMPKDFPPFPQKLKFREPQREERICLVTTNFQTKSMSSMVSDTSCTFPSGDGIFWKHWIQTKDGQCGSPLVSTRDGNIVGIHSASNFTNTNNYFTSVPKNFMELLTNQEAQQWVSGWRLNADSVLWGGHKVFMVKPEEPFQPVKEATQL [F163N] | 0.0745 | – | 0.0725 | – | – | – | – | – | – | 0.052
7 | MGESLFKGPRDYNPISSSICHLTNESDGHTTSLYGIGFGPFIITNKHLFRRNNGTLVVQSLHGVFKVKDTTTLQQHLVDGRDMIIIRMPKDFPPFPQKLKFREPQREERICLVTTNFQTKSMSSMVSDTSCTFPSGDGIFWKHWIQTKDGQCGSPLVSTRDGFIVGIHSASNFTNTNNDFTSVPKNFMELLTNQEAQQWVSGWRLNADSVLWGGHKVFMVKPEEPFQPVKEATQL [Y179D] | 0.0547 | – | – | – | – | – | – | – | 0.0477 | 0.0728
8 | MGESLFKGPRDYNPISSSICHLTNESDGHTTSLYGIGFGPFIITNKHLFRRNNGTLVVQSLHGVFKVKDTTTLQQHLVDGRDMIIIRMPKDFPPFPQKLKFREPQREERICLVTTNFQTKSMSSMVSDTSCTFPSGDGIFWKHWIQTKDGQCGSPLVSTRDNFIVGIHSASNFTNTNNYFTSVPKNFMELLTNQEAQQWVSGWRLNADSVLWGGHKVFMVKPEEPFQPVKEATQL [G162N] | 0.0624 | 0.0529 | 0.0717 | – | 0.0656 | – | – | – | 0.0473 | 0.0631
9 | MGESLFKGPRDYNPISSSICHLTNESDGHTTSLYGIGFGPFIITNKHLFRRNNGTLVVQSLHGVFKVKDTTTLQQHLVDGRDMIIIRMPKDFPPFPQKLKFREPQREERICLVTTNFQTKSMSSMVSDTSCTFPSGDGIFWKHWIQTKDGQCGSPLVSTRDGFIVGIHSASNFTNTNNYHTSVPKNFMELLTNQEAQQWVSGWRLNADSVLWGGHKVFMVKPEEPFQPVKEATQL [F180H] | 0.0596 | – | – | – | – | – | – | 0.069 | – | 0.0624
10 | MGESLFKGPRDYNPISSSICHLTNESDGHTTSLYGIGFGPFIITNKHLFRRNNGTLVVQSLHGVFKVKDTTTLQQHLVDGRDMIIIRMPKDFPPFPQKLKFREPQREERICLVTTNFQTKSMSSMVSDTSCTFPSGDGIFWKHWIQTKDGQCGSPLVSTRDGFIVGIHSASNFTNTTNYFTSVPKNFMELLTNQEAQQWVSGWRLNADSVLWGGHKVFMVKPEEPFQPVKEATQL [N177T] | 0.092 | 0.0797 | 0.087 | 0.0976 | – | 0.0803 | 0.0966 | 0.0992 | 0.0881 | 0.0725

Same assay, conditions: temperature: 34 °C; time window: 0-4 h after rhamnose induction

Row | Variant | area with substrate YNLYFQS | area with substrate GNLYFQS | area with substrate INLYFQS | area with substrate RNLYFQS | area with substrate NNLYFQS
11 | MGESLFKGPRDYNPISSSICHLTNESDGHTTSLYGIGFGPFIITNKHLFRRNNGTLVVQSLHGVFKVKDTTTLQQHLVDGRDMIIIRMPKDFPPFPQKLKFREPQREERICLVTTNFQTKSMSSMVSDTSCTFPSGDGIFWKHWIQTKDGQCGSPLVSTRDGFIVGIHSESNFTNTNNYFTSVPKNFMELLTNQEAQQWVSGWRLNADSVLWGGHKVFMVKPEEPFQPVKEATQL [A170E] | 0.0562 | – | – | – | –
12 | MGESLFKGPRDYNPISSSICHLTNESDGHTTSLYGIGFGPFIITNKHLFRRNNGTLVVQSLHGVFKVKDTTTLQQHLVDGRDMIIIRMPKDFPPFPQKLKFREPQREERICLVTTNFQTKSMSSMVSDTSCTFPSGDGIFWKHWIQTKDGQCGSPLVSTRDGFIVGIHSASNFTATNNYFTSVPKNFMELLTNQEAQQWVSGWRLNADSVLWGGHKVFMVKPEEPFQPVKEATQL [N175A] | 0.0586 | 0.0693 | 0.0557 | 0.0641 | –
13 | MGESLFKGPRDYNPISSSICHLTNESDGHTTSLYGIGFGPFIITNKHLFRRNNGTLVVQSLHGVFKVKDTTTLQQHLVDGRDMIIIRMPKDFPPFPQKLKFREPQREERICLVTTNFQTKSMSSMVSDTSCTFPSGDGIFWKHWIQTKDGQCGSPLVSTRDGYIVGIHSASNFTNTNNYFTSVPKNFMELLTNQEAQQWVSGWRLNADSVLWGGHKVFMVKPEEPFQPVKEATQL [F163Y] | 0.0402 | – | – | – | 0.057
14 | MGESLFKGPRDYNPISSSICHLTNESDGHTTSLYGIGFGPFIITNKHLFRRNNGTLVVQSLHGVFKVKDTTTLQQHLVDGRDMIIIRMPKDFPPFPQKLKFREPQREERICLVTTNFQTKSMSSMVSDTSCTFPSGDGIFWKHWIQTKDGQCGSPLVSTRDGPIVGIHSASNFTNTNNYFTSVPKNFMELLTNQEAQQWVSGWRLNADSVLWGGHKVFMVKPEEPFQPVKEATQL [F163P] | 0.0457 | – | – | – | –
15 | MGESLFKGPRDYNPISSSICHLTNESDGHTTSLYGIGFGPFIITNKHLFRRNNGTLVVQSLHGVFKVKDTTTLQQHLVDGRDMIIIRMPKDFPPFPQKLKFREPQREERICLVTTNFQTKSMSSMVSDTSCTFPSGDGIFWKHWIQTKDGQCGSPLVSTRDGNIVGIHSASNFTNTNNYFTSVPKNFMELLTNQEAQQWVSGWRLNADSVLWGGHKVFMVKPEEPFQPVKEATQL [F163N] | – | 0.0666 | – | – | –
16 | MGESLFKGPRDYNPISSSICHLTNESDGHTTSLYGIGFGPFIITNKHLFRRNNGTLVVQSLHGVFKVKDTTTLQQHLVDGRDMIIIRMPKDFPPFPQKLKFREPQREERICLVTTNFQTKSMSSMVSDTSCTFPSGDGIFWKHWIQTKDGQCGSPLVSTRDGFIVGIHSASNFTNTNNDFTSVPKNFMELLTNQEAQQWVSGWRLNADSVLWGGHKVFMVKPEEPFQPVKEATQL [Y179D] | – | – | – | – | 0.0577
17 | MGESLFKGPRDYNPISSSICHLTNESDGHTTSLYGIGFGPFIITNKHLFRRNNGTLVVQSLHGVFKVKDTTTLQQHLVDGRDMIIIRMPKDFPPFPQKLKFREPQREERICLVTTNFQTKSMSSMVSDTSCTFPSGDGIFWKHWIQTKDGQCGSPLVSTRDNFIVGIHSASNFTNTNNYFTSVPKNFMELLTNQEAQQWVSGWRLNADSVLWGGHKVFMVKPEEPFQPVKEATQL [G162N] | 0.0494 | – | – | – | –
18 | MGESLFKGPRDYNPISSSICHLTNESDGHTTSLYGIGFGPFIITNKHLFRRNNGTLVVQSLHGVFKVKDTTTLQQHLVDGRDMIIIRMPKDFPPFPQKLKFREPQREERICLVTTNFQTKSMSSMVSDTSCTFPSGDGIFWKHWIQTKDGQCGSPLVSTRDGFIVGIHSASNFTNTNNYHTSVPKNFMELLTNQEAQQWVSGWRLNADSVLWGGHKVFMVKPEEPFQPVKEATQL [F180H] | – | – | – | – | 0.0438
19 | MGESLFKGPRDYNPISSSICHLTNESDGHTTSLYGIGFGPFIITNKHLFRRNNGTLVVQSLHGVFKVKDTTTLQQHLVDGRDMIIIRMPKDFPPFPQKLKFREPQREERICLVTTNFQTKSMSSMVSDTSCTFPSGDGIFWKHWIQTKDGQCGSPLVSTRDGFIVGIHSASNFTNTTNYFTSVPKNFMELLTNQEAQQWVSGWRLNADSVLWGGHKVFMVKPEEPFQPVKEATQL [N177T] | 0.0643 | 0.0088 | – | – | –
